# Assay results reported in PubChem BioAssay AID651820 (National Center for Advancing Translational Sciences (NCATS), 2012).
# Among all 340,000 compounds or so, about 12,000 (3.5%) were called active. Inconclusive results, whose numbers are uncertain, are shown with a selection of clear calls. The call rests on the fitted dose curve; in most records, active means well fitted inhibition curve with a large enough effect; inconclusive means small, poorly fitted or top-dose-only effect, or another doubt; inactive means no such curve, though single readings can be large or run the other way. No potency is given beside an inconclusive call; the fits are too rough.
# Assay: qHTS Assay for Inhibitors of Hepatitis C Virus (HCV)
# Settings: Huh7.5.1 HCVcc-Cre (HCVcc is cell-culture hepatitis C virus) infection, luciferase reporter, 44 h; series mostly up to 41.8 µM
# Summary of the method: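 A cell-based infection assay in which seeded cells (1,000 per well) receive test compound after 4 h, are inoculated with HCVcc-Cre at approximately 0.5 moi, and are incubated 44 h before luminescence detection.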
# Potency means the concentration at half of the fitted maximal effect; tags describe the fitted curve by direction and shape.
row,SMILES,Potency
1,COc1ccc(CCNC(=O)CCn2c(SCC#N)nc3ccccc3c2=O)cc1OC,active: 12.6 µM
2,COc1ccccc1C1N(c2ccc(Cl)cc2)C(=O)C2CCCN21 (stereo unspecified),inactive
3,CC1=N/C(=C\c2ccc([N+](=O)[O-])cc2)C(=O)N1c1ccc(F)cc1F,"inconclusive [inhibitor, partial curve, poor fit]"
4,Cc1cccc(N2C(=O)CC(Sc3nc(-c4ccccc4)c4cc(Cl)ccc4n3)C2=O)c1 (stereo unspecified),"inconclusive [inhibitor, partial curve, poor fit]"
5,COc1cc(CNCc2ccccn2)ccc1OCc1cccc(Cl)c1,"inconclusive [inhibitor, partial curve]"
6,Cc1ccc(N(C)C(=O)c2ccc3c(Cl)c4c(nc3c2)CCC4)cc1C,"inconclusive [inhibitor, single point]"
7,COc1cc(NC(=O)CCn2c(=O)oc3ccccc32)cc(OC)c1OC,"inconclusive [inhibitor, full curve, poor fit]"
8,O=C(OCn1ncc(Br)c(Br)c1=O)c1ccc(F)cc1,"inconclusive [inhibitor, partial curve]"
9,COC(=O)C1=C(c2ccc(OC)c(OC)c2)C[C@@H]2CC[C@H]1N2C(=O)NCc1cc(C)oc1C(F)(F)F,inactive
10,Oc1[nH]c(=S)sc1/C=C1\C(c2ccccc2)=Nc2ccccc21,"inconclusive [inhibitor, full curve]"
11,CC(C)(C)c1ccc(C(=O)C2CCCN(C(=O)CCn3cncn3)C2)cc1 (stereo unspecified),"inconclusive [inhibitor, single point]"
12,CCc1cc2c(-c3ccccc3)cc(=O)oc2cc1OCC(C)=O,"inconclusive [inhibitor, single point]"
13,O=[N+]([O-])c1cccc(N/N=C/c2cccc(O)c2O)c1,"inconclusive [inhibitor, partial curve]"
14,C=CCn1c(SCC(=O)c2[nH]c(C)c(C(C)=O)c2C)nnc1-c1ccncc1,"inconclusive [inhibitor, partial curve]"
15,CC1(C)CC[C@]2(C(=O)O)CC[C@]3(C)C(=CCC4[C@@]5(C)CC[C@H](O)C(C)(C)C5[C@H](O)C[C@]43C)[C@@H]2C1 (stereo partly specified),"inconclusive [inhibitor, single point]"
16,COc1ccc(C(C)=O)cc1CSc1nnc(-c2ccccc2O)n1-c1ccccc1,"inconclusive [inhibitor, partial curve]"
17,CCCOC(=O)c1ccc(Oc2c(-c3ccc(OC)cc3O)n[nH]c2C)cc1,"inconclusive [inhibitor, single point]"
18,C=CCn1c(SCC(=O)Nc2cc(OC)c(NC(=O)c3ccco3)cc2OC)nnc1-c1ccncc1,"inconclusive [inhibitor, single point]"
19,N#Cc1c(/N=C/N2CCOCC2)sc2c1CCCCC2,"inconclusive [inhibitor, single point]"
20,COC(=O)c1ccc(C(=O)N2CCCC(N3CCN(c4ccccc4)CC3)C2)nc1 (stereo unspecified),"inconclusive [inhibitor, single point]"
21,CC(C)(C)OC(=O)N1CCN(C(=O)OCC2c3ccccc3-c3ccccc32)CC1C(=O)O (stereo unspecified),inactive
22,Cc1noc(C)c1COc1cccc(C(=O)N2CCc3ccccc32)c1,"inconclusive [inhibitor, single point]"

row,SMILES,Potency
1,COc1ccc(S(=O)(=O)NC2CC(=O)N(c3cccc(F)c3)C2)cc1OC (stereo unspecified),inactive
2,CCN1CCN(Cc2ccc(NC(=O)c3cc(NC(=O)C4=NN(c5ccccc5)C(=O)C4)cc(OC)c3)cc2C(F)(F)F)CC1,inactive
3,COc1ccc(-c2cc(=Nc3ccc(C)cc3)c3ccccc3o2)cc1,"inconclusive [inhibitor, single point]"
4,O=c1cnc2ccccc2n1Cc1ccc(Br)cc1,"inconclusive [inhibitor, partial curve]"
5,CN(CC(=O)Nc1ccc(F)cc1)C(=O)C1CCCC1,inactive
6,COCCn1c(=O)[nH]c2cc(C(=O)N3CCN(c4cccc(Cl)c4)CC3)ccc2c1=O,"inconclusive [inhibitor, single point]"
7,CCN(CC)C(=O)CSc1ncnc2sc(-c3ccccc3)cc12,active: 12.6 µM
8,Cc1ccc(C)c(NC(=O)CSc2nnc(-c3ccccc3C)o2)c1,inactive
9,Cc1cccc(NC(=O)CCN2CCN(C/C=C/c3ccccc3)CC2)c1,"inconclusive [inhibitor, single point]"
10,CC(=O)[C@]1(O)Cc2c(O)c3c(c(O)c2[C@@H](O[C@H]2C[C@H](N)[C@H](O)[C@H](C)O2)C1)C(=O)c1ccccc1C3=O,active: 11.2 µM
11,COc1ccc(-n2nc(C(=O)NCC(=O)NCCc3ccc(OC)c(OC)c3)c3ccccc3c2=O)cc1,"inconclusive [inhibitor, single point]"
12,COc1ccc(C2C(C(=O)Nc3cccc(C)n3)CCC(=O)N2c2ccc(OC)cc2)cc1 (stereo unspecified),"inconclusive [inhibitor, full curve, poor fit]"
13,O=C(CSc1nc(-c2ccco2)cc(C(F)(F)F)n1)NCCN1CCOCC1,inactive
14,COCCN(Cc1ccccc1)C(=O)c1cccc(S(=O)(=O)N2CCN(c3ccccc3)CC2)c1,"inconclusive [inhibitor, single point]"
15,CC(C)NC(=S)NN=C1CCCCCCCCCCC1,"inconclusive [inhibitor, single point]"
16,CCOc1ccc2nc(Cl)c(/C=C/C(=O)c3ccco3)cc2c1,"inconclusive [inhibitor, single point]"
17,Cc1cccc(C(C)(C)C)c1OCCN1CCCC1,"inconclusive [inhibitor, single point]"
18,Cc1ccc(NC(=O)COC(=O)CCC(=O)c2cccs2)cc1,"inconclusive [inhibitor, single point]"
19,CCOc1ccc(S(=O)(=O)N2CCCCC2)c2ccccc12,"inconclusive [inhibitor, single point]"
20,CCCCCOc1ccc(C(=O)CCC(=O)NNC(=O)c2ccncc2)cc1,inactive
21,Brc1ccccc1OCCN1CCCC1,inactive
22,O=C(N/N=C/c1cc(Br)cc([N+](=O)[O-])c1O)c1ccc(NC(=O)c2ccc(F)cc2)cc1,"inconclusive [inhibitor, single point]"

row,SMILES,Potency
1,c1ccc2nc(-c3ccc4c(c3)OCO4)ccc2c1,inactive
2,CCC(=O)Nc1ccc(NC(=O)c2cc3ccccc3o2)c(OC)c1,"inconclusive [inhibitor, partial curve]"
3,CCN1C(=O)/C(=C\N2CCCc3ccccc32)SC1=S,"inconclusive [inhibitor, single point]"
4,CCCCC1(CCCC)C(=O)NC(=Nc2cccc(C)c2)NC1=O,"inconclusive [inhibitor, partial curve]"
5,O=C(CSc1nnc(-c2cccc(F)c2)o1)N1CCCC1,inactive
6,Brc1ccc2ncnc(Nc3ccc(N4CCOCC4)cc3)c2c1,"inconclusive [inhibitor, partial curve]"
7,CC(C)CCCN1C(Nc2ccccc2)=NC[C@@H]1C,inactive
8,Cn1ccc2cc(NC(=O)Nc3cccnc3)ccc21,"inconclusive [inhibitor, single point]"
9,Cc1ccc(NC(=O)C2CC(=O)N(c3ccc4c(c3)OCCO4)C2)cc1S(=O)(=O)N1CCCCCC1 (stereo unspecified),active: 10 µM
10,CCCCc1nc(Cl)c(C#N)c2c1CSC(C)(C)C2,"inconclusive [inhibitor, single point]"
11,CC1CN(C(=O)c2cccc(S(=O)(=O)N3CCN(c4ccc(F)cc4)CC3)c2)CC(C)O1 (stereo unspecified),"inconclusive [inhibitor, partial curve, poor fit]"
12,CCNC(=S)N/N=C/c1ccc(C#N)cc1,"inconclusive [inhibitor, single point]"
13,O=C(NCc1ccco1)C1c2ccccc2Oc2ccccc21,"inconclusive [inhibitor, single point]"
14,CCOc1cc(CNc2ccc(S(N)(=O)=O)cc2)ccc1OCC(=O)NC(C)(C)C,"inconclusive [inhibitor, partial curve]"
15,O=C1N=C(N2CCOCC2)S/C1=C/c1cc2c(cc1[N+](=O)[O-])OCO2,"inconclusive [inhibitor, single point]"
16,COc1ccc(Nc2nc(N)nc(CCl)n2)cc1,active: 3.98 µM
17,CC1CCN(Cc2cc(=O)oc3ccc(C(C)C)cc23)CC1,"inconclusive [inhibitor, single point]"
18,CN(C)c1nc(N)nc(CSc2nnnn2-c2cccc3ccccc23)n1,active: 3.16 µM
19,c1ccc(CSc2ncnc3c2sc2nc(N4CCOCC4)c4c(c23)CCCC4)cc1,"inconclusive [inhibitor, single point]"
20,CCOc1ccccc1NC(=S)N1CCN(c2nc(-c3cccc(OC)c3)cs2)CC1,"inconclusive [inhibitor, single point]"
21,O=C1CC(Nc2ccc(N3CCOCC3)cc2)C(=O)N1c1cccc(C(F)(F)F)c1 (stereo unspecified),"inconclusive [inhibitor, single point]"
22,Cc1cc(C(=O)OCC(=O)N2CC(=O)Nc3ccccc32)c(C)n1-c1ccc(F)cc1,"inconclusive [inhibitor, single point]"
